# Experimental data reported in the supplement of paper PMC4604168 (melanoma cell lines).
# The other results are listed elsewhere or left out. Single values are uncertain, as repeats are few or missing.
# Test system: WM451Lu
# Test: cell count relative to DMSO control; melanoma cells; higher = more viable cells
# Conditions: library dose: low library concentration; 72 h
# 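Further: cell number obtained by counting DAPI-stained nuclei in high-throughput microscope images with image analysis software, screen run in 1,536-well plates.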
row,SMILES,cell count [%]
1,"CN1CCN(c2ccc3nc(-c4c(N)c5c(F)cccc5[nH]c4=O)[nH]c3c2)CC1 [Dovitinib] + O=C(O)[C@@H]1[O][Sb](=[O])([O][Sb]2(=[O])[O][C@H]([C@H](O)CO)[C@H](O)[C@H](C(=O)O)[O]2)[O][C@H]([C@H](O)CO)[C@@H]1O [stibogluconate] (first compound 0.1 µM, partner dose 2 µM)",126
2,"CS(=O)(=O)CCNCc1ccc(-c2ccc3ncnc(Nc4ccc(OCc5cccc(F)c5)c(Cl)c4)c3c2)o1 [lapatinib] + CN(C)S(=O)(=O)c1ccc2c(c1)/C(=C/c1cc3c([nH]1)CCCC3)C(=O)N2 [SU6656] (first compound 0.8 µM, partner dose 0.4 µM)",104
3,"C=CCNC1=C2C[C@@H](C)C[C@H](OC)[C@H](O)[C@@H](C)/C=C(\C)[C@H](OC(N)=O)[C@@H](OC)/C=C\C=C(/C)C(=O)NC(=CC1=O)C2=O [Tanespimycin] + CCc1ccc(CCOc2ccc(CC3SC(=O)NC3=O)cc2)nc1 [pioglitazone] (first compound 0.002 µM, partner dose 2 µM)",98.4
4,"CS(=O)(=O)CCNCc1ccc(-c2ccc3ncnc(Nc4ccc(OCc5cccc(F)c5)c(Cl)c4)c3c2)o1 [lapatinib] + COc1cc2ncnc(Nc3ccc(Oc4ccccc4)cc3)c2cc1OC [SrcI1] (first compound 0.8 µM, partner dose 2 µM)",95.1
5,"CNC(=O)c1cc(Oc2ccc(NC(=O)Nc3ccc(Cl)c(C(F)(F)F)c3)cc2)ccn1 [sorafenib] + COc1cc(N2CCC(N3CCN(C)CC3)CC2)ccc1Nc1ncc(Cl)c(Nc2ccccc2S(=O)(=O)C(C)C)n1 [NVP-TAE684] (first compound 0.4 µM, partner dose 0.08 µM)",115
6,"CS(=O)(=O)CCNCc1ccc(-c2ccc3ncnc(Nc4ccc(OCc5cccc(F)c5)c(Cl)c4)c3c2)o1 [lapatinib] + NC(=O)Nc1cc(-c2cccc(F)c2)sc1C(=O)N[C@H]1CCCNC1 [AZD7762] (first compound 0.8 µM, partner dose 0.02 µM)",93.1
7,"C[C@@H](Oc1cc(-c2cnn(C3CCNCC3)c2)cnc1N)c1c(Cl)ccc(F)c1Cl [Crizotinib] + O=C(Nc1ccccc1)c1cc([N+](=O)[O-])ccc1Cl [GW9662] (first compound 0.2 µM, partner dose 2 µM)",114
8,"CNC(=O)c1cc(Oc2ccc(NC(=O)Nc3ccc(Cl)c(C(F)(F)F)c3)cc2)ccn1 [sorafenib] + Cc1cc(N2CCOCC2)cc2[nH]c(-c3c(NC[C@@H](O)c4cccc(Cl)c4)cc[nH]c3=O)nc12 [BMS536924] (first compound 0.4 µM, partner dose 0.2 µM)",107
9,"CN1CCN(c2ccc3nc(-c4c(N)c5c(F)cccc5[nH]c4=O)[nH]c3c2)CC1 [Dovitinib] + CC(C)(C)c1cnc(CSc2cnc(NC(=O)C3CCNCC3)s2)o1 [SNS-032] (first compound 0.1 µM, partner dose 0.01 µM)",90.7
10,"C=CCNC1=C2C[C@@H](C)C[C@H](OC)[C@H](O)[C@@H](C)/C=C(\C)[C@H](OC(N)=O)[C@@H](OC)/C=C\C=C(/C)C(=O)NC(=CC1=O)C2=O [Tanespimycin] + NCC(=O)Nc1ccc(-n2nc(C(F)(F)F)cc2-c2ccc3c(ccc4ccccc43)c2)cc1 [OSU03012] (first compound 0.002 µM, partner dose 1 µM)",56.7
11,"CS(=O)(=O)CCNCc1ccc(-c2ccc3ncnc(Nc4ccc(OCc5cccc(F)c5)c(Cl)c4)c3c2)o1 [lapatinib] + COc1ccc(-c2ccc3c(N4CCOCC4)nc(N4C[C@@H](C)O[C@@H](C)C4)nc3n2)cc1CO [KU0063794] (first compound 0.8 µM, partner dose 0.02 µM)",106
12,"C=CCNC1=C2C[C@@H](C)C[C@H](OC)[C@H](O)[C@@H](C)/C=C(\C)[C@H](OC(N)=O)[C@@H](OC)/C=C\C=C(/C)C(=O)NC(=CC1=O)C2=O [Tanespimycin] + COC(=O)c1sccc1S(=O)(=O)Nc1ccc(Nc2ccccc2)cc1OC [GSK0660] (first compound 0.002 µM, partner dose 1 µM)",102
13,"C[C@@H](Oc1cc(-c2cnn(C3CCNCC3)c2)cnc1N)c1c(Cl)ccc(F)c1Cl [Crizotinib] + O=C(O)C(=O)Nc1sc2c(c1C(=O)O)CCNC2 [TCS401] (first compound 0.2 µM, partner dose 1.66667 µM)",104
14,"CS(=O)(=O)CCNCc1ccc(-c2ccc3ncnc(Nc4ccc(OCc5cccc(F)c5)c(Cl)c4)c3c2)o1 [lapatinib] + COc1cc(Nc2ncc(F)c(Nc3ccc4c(n3)NC(=O)C(C)(C)O4)n2)cc(OC)c1OC [Tamatinib] (first compound 0.8 µM, partner dose 0.4 µM)",79.3
15,"C[C@@H](Oc1cc(-c2cnn(C3CCNCC3)c2)cnc1N)c1c(Cl)ccc(F)c1Cl [Crizotinib] + CO[C@H]1C[C@@H]2CC[C@@H](C)[C@@](O)(O2)C(=O)C(=O)N2CCCC[C@H]2C(=O)O[C@H]([C@H](C)C[C@@H]2CC[C@@H](OCCO)[C@H](OC)C2)CC(=O)[C@H](C)/C=C(\C)[C@@H](O)[C@@H](OC)C(=O)[C@H](C)C[C@H](C)/C=C/C=C/C=C/1C [everolimus] (first compound 0.2 µM, partner dose 0.02 µM)",91.3
16,"CN1CCN(c2ccc3nc(-c4c(N)c5c(F)cccc5[nH]c4=O)[nH]c3c2)CC1 [Dovitinib] + C[C@]1(c2nc3c(C(N)=O)cccc3[nH]2)CCCN1 [Veliparib] (first compound 0.1 µM, partner dose 1.4 µM)",84.5
17,"C[C@@H](Oc1cc(-c2cnn(C3CCNCC3)c2)cnc1N)c1c(Cl)ccc(F)c1Cl [Crizotinib] + O=C1NC(=O)/C(=C/c2ccc(-c3ccc(F)cc3O)o2)S1 [AS252424] (first compound 0.2 µM, partner dose 1 µM)",96.4
18,"CS(=O)(=O)CCNCc1ccc(-c2ccc3ncnc(Nc4ccc(OCc5cccc(F)c5)c(Cl)c4)c3c2)o1 [lapatinib] + O=C1NC(=O)/C(=C/c2ccc(-c3ccc(F)cc3O)o2)S1 [AS252424] (first compound 0.8 µM, partner dose 1 µM)",60.4
19,"CN1CCN(c2ccc3nc(-c4c(N)c5c(F)cccc5[nH]c4=O)[nH]c3c2)CC1 [Dovitinib] + CN(NC(=O)CC(=O)NN(C)C(=S)c1ccccc1)C(=S)c1ccccc1 [STA4783] (first compound 0.1 µM, partner dose 0.006 µM)",73.3
20,"C[C@@H](Oc1cc(-c2cnn(C3CCNCC3)c2)cnc1N)c1c(Cl)ccc(F)c1Cl [Crizotinib] + CNC(=O)c1cc(Oc2ccc(NC(=O)Nc3ccc(Cl)c(C(F)(F)F)c3)cc2)ccn1 [sorafenib] (first compound 0.2 µM, partner dose 0.4 µM)",110
21,"CS(=O)(=O)CCNCc1ccc(-c2ccc3ncnc(Nc4ccc(OCc5cccc(F)c5)c(Cl)c4)c3c2)o1 [lapatinib] + CCc1ccc(CCOc2ccc(CC3SC(=O)NC3=O)cc2)nc1 [pioglitazone] (first compound 0.8 µM, partner dose 2 µM)",86.3
22,"C[C@@H](Oc1cc(-c2cnn(C3CCNCC3)c2)cnc1N)c1c(Cl)ccc(F)c1Cl [Crizotinib] + CCN(CC)CCCCNc1ncc2cc(-c3cc(OC)cc(OC)c3)c(NC(=O)NC(C)(C)C)nc2n1 [PD173074] (first compound 0.2 µM, partner dose 0.1 µM)",95.5
23,"C[C@@H](Oc1cc(-c2cnn(C3CCNCC3)c2)cnc1N)c1c(Cl)ccc(F)c1Cl [Crizotinib] + CC(C)(C)c1cnc(CSc2cnc(NC(=O)C3CCNCC3)s2)o1 [SNS-032] (first compound 0.2 µM, partner dose 0.01 µM)",88.8
24,"CNC(=O)c1cc(Oc2ccc(NC(=O)Nc3ccc(Cl)c(C(F)(F)F)c3)cc2)ccn1 [sorafenib] + NC(=O)Nc1cc(-c2cccc(F)c2)sc1C(=O)N[C@H]1CCCNC1 [AZD7762] (first compound 0.4 µM, partner dose 0.02 µM)",106
25,"CN1CCN(c2ccc3nc(-c4c(N)c5c(F)cccc5[nH]c4=O)[nH]c3c2)CC1 [Dovitinib] + Nc1nc(F)nc2c1ncn2[C@@H]1O[C@H](CO)[C@@H](O)[C@@H]1O [fludarabine] (first compound 0.1 µM, partner dose 0.2 µM)",56.7
26,"CS(=O)(=O)CCNCc1ccc(-c2ccc3ncnc(Nc4ccc(OCc5cccc(F)c5)c(Cl)c4)c3c2)o1 [lapatinib] + O=S(=O)(c1ccccc1)N(CC(F)(F)F)c1ccc(C(O)(C(F)(F)F)C(F)(F)F)cc1 [T0901317] (first compound 0.8 µM, partner dose 1.4 µM)",100
27,"CN1CCN(c2ccc3nc(-c4c(N)c5c(F)cccc5[nH]c4=O)[nH]c3c2)CC1 [Dovitinib] + O=C(CCCCCCC(=O)Nc1ccccc1)NO [vorinostat] (first compound 0.1 µM, partner dose 0.08 µM)",80.9
28,"C[C@@H](Oc1cc(-c2cnn(C3CCNCC3)c2)cnc1N)c1c(Cl)ccc(F)c1Cl [Crizotinib] + Cn1cc(/C=C2\C(=O)Nc3cccnc32)c2ccccc21 [GW441756] (first compound 0.2 µM, partner dose 0.4 µM)",140
29,"CN1CCN(c2ccc3nc(-c4c(N)c5c(F)cccc5[nH]c4=O)[nH]c3c2)CC1 [Dovitinib] + Cc1cc(N2CCOCC2)cc2[nH]c(-c3c(NC[C@@H](O)c4cccc(Cl)c4)cc[nH]c3=O)nc12 [BMS536924] (first compound 0.1 µM, partner dose 0.2 µM)",96
30,"CS(=O)(=O)CCNCc1ccc(-c2ccc3ncnc(Nc4ccc(OCc5cccc(F)c5)c(Cl)c4)c3c2)o1 [lapatinib] + Clc1ccc(Nc2nnc(Cc3ccncc3)c3ccccc23)cc1 [vatalanib] (first compound 0.8 µM, partner dose 2 µM)",94.2
